Reference: the supplement of paper PMC4967469

What was measured:
[1] = compound: NC(=O)c1ncn([C@@H]2O[C@H](CO)[C@@H](O)[C@H]2O)c1N [AICAR]; experiment: Viability of human cancer cell lines after 72 h of drug (GDSC screen); conditions: top dose 2000 µM; top dose inferred
Description: (§1)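 Human cancer cell lines in 384-well plates, medium with 10% serum, drug for 72 h over a 256-fold dose range (nine 2-fold or five 4-fold steps up to the top dose). Adherent lines were fixed and stained with the nucleic acid dye Syto60, suspension lines read with resazurin; signal relative to control wells, capped at 0 and 100%. One two-parameter sigmoid per drug and line, fitted in a mixed model over all curves with the slope shared within a line.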

[2] = compound: O=c1[nH]c2ccccc2n1C1CCN(Cc2ccc(-c3[nH]c4cc5ncnc5cc4nc3-c3ccccc3)cc2)CC1 [AKT inhibitor VIII]; experiment: as above; conditions: top dose inferred
Description: as §1

[3] = top dose 2.56 µM, screen: GDSC drug entry 171
[4] = top dose 10.24 µM, screen: GDSC drug entry 228

Cell Line	AUC [1]	IC50 [1]	AUC [2, 3]	IC50 [2, 3]	AUC [2, 4]	IC50 [2, 4]
JHU-022 (head and neck, adherent)	0.758	868 µM	0.982	> 2.56 µM	0.925	> 10.2 µM
JHU-029 (head and neck, adherent)	0.734	689 µM	0.804	1.64 µM	–	–
JIMT-1 (breast, adherent)	0.761	765 µM	0.944	> 2.56 µM	0.932	> 10.2 µM
JJN-3 (haematopoietic neoplasm, suspension)	0.788	711 µM	0.992	> 2.56 µM	0.831	4.93 µM
JM1 (B-cell lymphoma, suspension)	0.771	661 µM	0.949	> 2.56 µM	0.901	9.98 µM
JSC-1 (B-cell lymphoma, suspension)	0.837	1320 µM	0.944	> 2.56 µM	0.723	2.73 µM
JVM-2 (lymphoid neoplasm, suspension)	0.866	> 2000 µM	0.978	> 2.56 µM	0.873	> 10.2 µM
JVM-3 (lymphoid neoplasm, suspension)	0.775	803 µM	0.987	> 2.56 µM	0.97	> 10.2 µM
JiyoyeP-2003 (Burkitt lymphoma, suspension)	0.858	1330 µM	0.974	> 2.56 µM	0.977	> 10.2 µM
K2 (melanoma, adherent)	0.982	> 2000 µM	0.971	> 2.56 µM	0.931	> 10.2 µM
K5 (thyroid, adherent)	0.86	1560 µM	0.982	> 2.56 µM	0.909	> 10.2 µM
KARPAS-45 (lymphoblastic leukaemia, suspension)	0.96	> 2000 µM	0.974	> 2.56 µM	0.404	0.367 µM
KARPAS-231 (B-cell leukaemia, suspension)	0.783	647 µM	0.87	1.51 µM	–	–
KARPAS-299 (anaplastic large cell lymphoma, suspension)	0.804	809 µM	0.992	> 2.56 µM	0.975	> 10.2 µM
KARPAS-422 (B-cell lymphoma, suspension)	0.774	775 µM	0.952	> 2.56 µM	0.839	6.82 µM
KARPAS-620 (haematopoietic neoplasm, suspension)	0.852	1220 µM	0.96	> 2.56 µM	0.581	1.03 µM
KASUMI-1 (acute myeloid leukaemia, suspension)	0.672	378 µM	0.8	1.24 µM	0.32	0.201 µM
KE-37 (lymphoblastic leukaemia, suspension)	0.779	624 µM	0.876	1.56 µM	0.239	0.143 µM
KELLY (neuroblastoma, adherent)	0.901	> 2000 µM	0.976	> 2.56 µM	0.963	> 10.2 µM
KGN (ovary, adherent)	0.638	327 µM	0.956	> 2.56 µM	0.828	8.26 µM
KLE (endometrium, adherent)	0.978	> 2000 µM	0.8	2.17 µM	0.797	8.38 µM
KM12 (large intestine, adherent)	0.912	> 2000 µM	0.975	> 2.56 µM	0.898	> 10.2 µM
KM-H2 (Hodgkin lymphoma, suspension)	0.819	924 µM	0.973	> 2.56 µM	0.873	7.37 µM
KMH-2 (thyroid, adherent)	0.883	1740 µM	0.968	> 2.56 µM	0.942	> 10.2 µM
KMOE-2 (acute myeloid leukaemia, suspension)	0.614	249 µM	0.932	> 2.56 µM	0.606	1.21 µM

Cell Line	AUC [1]	IC50 [1]	AUC [2, 3]	IC50 [2, 3]	AUC [2, 4]	IC50 [2, 4]
KMRC-1 (kidney, adherent)	0.973	> 2000 µM	0.925	> 2.56 µM	0.981	> 10.2 µM
KMRC-20 (kidney, adherent)	0.932	> 2000 µM	0.971	> 2.56 µM	0.988	> 10.2 µM
KMS-11 (myeloma, suspension)	0.823	958 µM	–	–	0.857	6.49 µM
KMS-12-BM (myeloma, suspension)	0.669	336 µM	0.968	> 2.56 µM	0.735	2.58 µM
KNS-42 (glioma, adherent)	0.896	> 2000 µM	0.938	> 2.56 µM	0.93	> 10.2 µM
KON (head and neck, adherent)	0.877	1940 µM	0.886	> 2.56 µM	0.98	> 10.2 µM
KOPN-8 (B-cell leukaemia, suspension)	0.685	379 µM	0.98	> 2.56 µM	0.764	3.22 µM
KP-1N (pancreas, adherent)	0.808	1100 µM	0.927	> 2.56 µM	0.638	1.57 µM
KP-2 (pancreas, adherent)	0.711	521 µM	0.983	> 2.56 µM	0.877	> 10.2 µM
KP-3 (pancreas, adherent)	0.948	> 2000 µM	0.953	> 2.56 µM	0.876	> 10.2 µM
KP-N-YN (neuroblastoma, adherent)	0.845	1660 µM	0.985	> 2.56 µM	0.971	> 10.2 µM
KU812 (chronic myeloid leukaemia, suspension)	0.855	1370 µM	0.84	1.55 µM	0.639	1.49 µM
KU-19-19 (bladder, adherent)	0.882	> 2000 µM	0.981	> 2.56 µM	0.983	> 10.2 µM
KURAMOCHI (ovary, adherent)	0.984	> 2000 µM	0.787	1.31 µM	0.807	6.3 µM
KYAE-1 (oesophagus, suspension)	0.888	> 2000 µM	–	–	0.459	0.49 µM
KYSE-50 (oesophagus, adherent)	0.733	535 µM	0.928	> 2.56 µM	0.773	3.64 µM
KYSE-70 (oesophagus, adherent)	0.892	> 2000 µM	0.892	> 2.56 µM	0.915	> 10.2 µM
KYSE-140 (oesophagus, adherent)	0.819	1340 µM	0.947	> 2.56 µM	0.877	> 10.2 µM
KYSE-220 (oesophagus, adherent)	0.984	> 2000 µM	0.942	> 2.56 µM	0.784	4.6 µM
KYSE-410 (oesophagus, adherent)	0.881	> 2000 µM	0.97	> 2.56 µM	0.929	> 10.2 µM
KYSE-450 (oesophagus, adherent)	0.865	1610 µM	0.972	> 2.56 µM	0.872	8.8 µM
KYSE-510 (oesophagus, adherent)	0.742	531 µM	0.866	1.67 µM	0.941	> 10.2 µM
KYSE-520 (oesophagus, adherent)	0.679	473 µM	0.91	> 2.56 µM	0.865	> 10.2 µM
L-363 (myeloma, suspension)	0.672	349 µM	0.985	> 2.56 µM	0.868	7.27 µM
L-428 (Hodgkin lymphoma, suspension)	0.897	1970 µM	0.985	> 2.56 µM	0.919	> 10.2 µM

Cell Line	AUC [1]	IC50 [1]	AUC [2, 3]	IC50 [2, 3]	AUC [2, 4]	IC50 [2, 4]
L-540 (Hodgkin lymphoma, suspension)	0.821	994 µM	0.99	> 2.56 µM	0.958	> 10.2 µM
L-1236 (Hodgkin lymphoma, suspension)	0.243	26.3 µM	0.992	> 2.56 µM	0.954	> 10.2 µM
LAN-6 (neuroblastoma, adherent)	0.984	> 2000 µM	0.971	> 2.56 µM	0.838	8.85 µM
LB373-MEL-D (melanoma, adherent)	0.979	> 2000 µM	0.989	> 2.56 µM	0.98	> 10.2 µM
LB831-BLC (bladder, adherent)	0.933	> 2000 µM	0.952	> 2.56 µM	0.958	> 10.2 µM
LB2518-MEL (melanoma, adherent)	0.925	> 2000 µM	0.985	> 2.56 µM	0.929	> 10.2 µM
LC4-1 (lymphoblastic leukaemia, suspension)	0.816	1260 µM	0.88	> 2.56 µM	0.431	0.406 µM
LC-1-sq (lung squamous cell carcinoma, adherent)	0.772	907 µM	0.962	> 2.56 µM	0.931	> 10.2 µM
LCLC-97TM1 (large cell lung carcinoma, adherent)	0.803	1100 µM	0.813	1.55 µM	0.715	2.77 µM
LCLC-103H (large cell lung carcinoma, adherent)	0.859	1410 µM	0.926	> 2.56 µM	0.917	> 10.2 µM
LK-2 (lung squamous cell carcinoma, adherent)	0.916	> 2000 µM	0.988	> 2.56 µM	0.865	8.17 µM
LN-18 (glioma, adherent)	0.969	> 2000 µM	0.968	> 2.56 µM	0.974	> 10.2 µM
LN-229 (glioma, adherent)	0.868	1810 µM	0.975	> 2.56 µM	0.933	> 10.2 µM
LN-405 (glioma, adherent)	0.889	> 2000 µM	0.967	> 2.56 µM	0.948	> 10.2 µM
LNZTA3WT4 (glioma, adherent)	0.871	1830 µM	0.963	> 2.56 µM	0.976	> 10.2 µM
LOU-NH91 (lung squamous cell carcinoma, adherent)	0.879	> 2000 µM	0.986	> 2.56 µM	0.973	> 10.2 µM
LOUCY (T-cell lymphoblastic leukaemia, suspension)	0.873	1340 µM	0.964	> 2.56 µM	0.34	0.252 µM
LP-1 (myeloma, suspension)	0.952	> 2000 µM	0.975	> 2.56 µM	0.772	3.31 µM
LS-123 (large intestine, adherent)	0.854	> 2000 µM	0.965	> 2.56 µM	0.922	> 10.2 µM
LS-180 (large intestine, adherent)	0.916	> 2000 µM	0.881	> 2.56 µM	0.944	> 10.2 µM
LS-411N (large intestine, adherent)	0.859	> 2000 µM	0.744	0.95 µM	0.776	5.01 µM
LS-513 (large intestine, adherent)	0.907	> 2000 µM	0.969	> 2.56 µM	0.781	4.41 µM
LS-1034 (large intestine, adherent)	0.947	> 2000 µM	0.959	> 2.56 µM	0.908	> 10.2 µM
LU-65 (large cell lung carcinoma, suspension)	0.964	> 2000 µM	0.979	> 2.56 µM	0.775	4.79 µM
LU-134-A (small cell lung carcinoma, suspension)	0.92	> 2000 µM	0.973	> 2.56 µM	0.887	> 10.2 µM

A lower IC50 marks a more sensitive line; a fit beyond the top or the lowest dose is shown as a bound at that dose. For AUC the same curve is integrated over the 256-fold range of doses and scaled to a fraction; it is 1 without any effect and falls as sensitivity rises. Where the top dose is marked as inferred, it was calculated from the reported fits. For some of these results: An entry number marks a drug with two screens in the source, which often give different values.
